Where a chain is given by its changes, count along the chain named. Human monoclonal antibodies (heavy:light variable regions, translated from the printed DNA). IC50 against SARS-CoV-2 spike pseudoviruses, on VSV particles in 293T-ACE2 cells (24 h) or MLV particles in HeLa-ACE2 cells (72 h); lower = stronger; >1.0 µg/ml as printed. No active / inactive call per row; the paper counts an IC50 of 0.4 µg/ml or less on any variant as neutralizing. Only 98 of the paper's 459 antibodies have neutralization values; the two systems are not on one scale.
B1: ADI-67757 (protein)
chain 1: QVQLVQSGAEVKKPGASVKVSCKASGYAFTTYDINWVRQATGQGLEWMGWTNPNSGNTGYTQKFQGRITMTRNNSISTAYMELSSLRSEDAAVYYCARGGSLKGNRRPVASSYYYNGMDVWGQGTTVTVSS
chain 2: EIVMTQSPATLSVSPGDRATLSCRTSQSVDSYLAWYQQKPGQAPRLLIYGASTRATGIPARFSGSGSGTEFTLTISSLQSEDFAVFYCQQYNNWPLTFGGGTKVEIK
B2: ADI-67679 (protein)
chain 1: EVQLVETGGGLIQPGGSLRLSCAVSGFIVSRNYMSWVRQAPGKGLEWVSVIYSGGSTFYADSVKGRFTISRDDSNNMMYLQMNSLRADDTAVYYCARDLAGPGLFDHWGQGTLVTVSS
chain 2: DIQMTQSPSSLSASVGDRVTITCQASQGISNFLNWYQQKPGKAPKLLIYDASILERGVPSRFSGSGSGTDFTLTISGLQPEDIATYYCQQYDNVPSITFGQGTRLEIK
B3: ADI-67466 (protein)
chain 1: QVQLVESGGGLVKPGGSLRLSCAASGFTFSDYYMSWIRQAPGEGLEWISLITSSGSAIYYADSVKGRFTISRDNAENSLYLQIHTLRAEDTAVYYCARDQGRLTGTTTNFDCWGQGTLVTVSS
chain 2: DIQMTQSPSSLSASVGDRVTLTCRASQSISSFLNWYQQKPGKAPKLLIYAASRSQSGVPSRFSGSGSGTDFTLTINGLQPEDFASYYCQQSNSIPLTFGGGTKVEIK
B4: ADI-67649 (protein)
chain 1: QVQLQESGPRLVRPAGTLSLTCAVSGGSIRSSNWRSWVRQPPGKGLEWIGEIYHTGGTNYNPSLKSRVTISVDKSTNQFSLRLDSVTAADTAVYYCARDIRQDDCSTTRCPEYWGQGTLVTVSS
chain 2: EIVLTQSPATLSLSPGERATLSCRASQSVTSSLAWYQQKPGQAPRLLIYDASYRATGIPARFSSSGSGTDFTLTISSLEPEDFAVYYCQQRSNWPPTFGPGTKVDIK
B5: ADI-67935 (protein)
chain 1: QVQLQESGPGLVKPSQTLSLTCTVSGGSLSSGGYYWTWIRQHPGKGLEWIGHIYYTGVTYYNSSLKSRVTISEDKSKNQFSLKLTSVTAADTAVYYCARGPYASGSFDSWGQGTLVTVSS
chain 2: EIVLTQSPGTLSLSPGERATLSCRASQSVSSNYLAWYQQKPGQAPRLLIYVASSRATGIPDRFSGSGSGTDFTLTISRLEPEDSGVYYCHHYGSSGDTFGQGTKVEIK
B6: ADI-67652 (protein)
chain 1: QVQLVQSGAEVKKPGASVKVSCKASGYTFTGHFIHWVRQAPGQGLEWMGWINPMSGNTNYAQTFQGRVTMTRDTSIQTVYMELSRLRSDDTAVYYCARDRNWAIFGVESDVWGKGTTVTVSS
chain 2: QSALTQPASVSGSPGQSITISCTGTSSDIRTYNLVSWYQQHPGNAPKLMIYEVNKRPSGISHRFSGSKSGHTASLTISGLQAEDEADYYCCSYADSSAWVFGGGTKLTVL
B7: ADI-67467 (protein)
chain 1: QVQLVQSGAEVKKPGSSVKVSCKASGDTFSIYAFSWARQAPGQGLEWMGGTIPSLDSVNYAQKFQGRVTITADESTSTAFMELNSLRSEDTAVYYCATAHVAYGDYVPSDYWGQGTLVTVSS
chain 2: EIVLTQSPGTLSLSPGERATLSCRASQSVSSNYLAWYQQKPGQAPRLVIYGASSRATGIPDRFSGSGSGTDFTLTISRLEPDDFAVYYCQQYGTSPPWTFGQGTKVEIK
B8: ADI-67680 (protein)
chain 1: QVQLVESGGGVVHPGRSLRLSCAASGFTFKTYGMHWVRQAPGKGLEWVAVIWYDGSKKYYVDSVKGRFTISRDNSKNTMYLQMNSLRAEDTAVYFCARDGTIAVAGTFDRFFDLWGRGTLVTVSS
chain 2: DIQMTQSPSSLSASVGDRITITCQASQDISNYLNWYQQKPEKAPKLLIYDASNLEAGVPSRFSGRRSGTDFTFTISSLQPEDIATYYCQQYHILPFTFGPGTKVDIK
B9: ADI-67474 (protein)
chain 1: QVQLVQSGAEVKKPGASVKVSCKASGYTFNSYGINWVRQAPGQGLEWMGWISGYNHNTDYAQKFQDRVTMTTDTSTSTAYMDLRSLRSDDTAVYYCARDPGSFGTVADYWGQGTLVTVSS
chain 2: EIVLTQSPGTLSLSPGERATLSCRARQSVSSSFLAWYQQKPGQAPRLLIYGASSRATGIPDRFSGSGSGTDFTLTISRLEPEDFAVYYCQQYGYSVYTFGQGTKLEIK
B10: ADI-67478 (protein)
chain 1: EVQLVESGGGLVQPGKSLRLSCAGSGFTFSSYAMSWVRQAPGKGLQWVSTISGGGGGTYYADSVKGRFTISRDNSKNTLYLQMDSLRAEDTAIYYCATHRGTVFFLTWGQGTLVTVSS
chain 2: B9 chain 2 with R26S, S30T, S32N, F33Y, S77N, Y88H, Y94G, V96P, Y97P, L105V
B11: ADI-67730 (protein)
chain 1: QVQLQESGPGLVKPSETLSLTCTVSGGSIKTYYWAWIRQPPGRGLEWIGYIYYSETTNFNPSLKSRVTMSFDTSKNQFSMKLSSVTAADTAVYYCARQSQGPYDFLTGKIYDAFDIWGQGTMVTVSS
chain 2: DIQMTQSPSSLSASVGDRITITCRASQSISKFLNWYQQKPGKAPKLLIYAASSLQSGVPLRFNASGSGTDFTLTISSLQPEDFAIYYCQQSYSTPQTFGPGTKVDIK
B12: ADI-67945 (protein)
chain 1: QVQLVESGGGVVQPGRSRRVSCAASGFIFNTYAMHWVRQAPGNGLEWVAVISYDGNNKYYADSVRGRFTISRDNSKNTLYLQMHSLRAEDTAVYYCARGGGSYFHAFDIWGQGTMVTVSS
chain 2: DIVMTQSPDSLAVSLGERATINCKSSQSVLYSSNNKNYLAWYQQKPGQPPKLLIYWASTRDSGVPDRFSGSGSGTDFTLTISSLQAEDVAVYYCQEYYSNPFTFGPGTKVDIK
B13: ADI-67726 (protein)
chain 1: QVQLVQSGAEVKKPGASVKVSCKASGYTFTSYEINWVRQATGQGLEWMGRMNPNSGYTDYAQKFQGRLTLTRNTSISTAYMELSRLRSEDTAVYYCATKRVQVPRRYYYYMDLWGKGTTVTVSS
chain 2: DIVMTQSPLSLPVTPGEPASISCRSSQSLLHSHGYNYLDWYLQKPGQSPHLLIYMGSNRASGVPDRFSGSGSGTDFTLKISRVEAEDVGVYYCMQSLQTPLTFGGGTKVEIK
B14: ADI-67481 (protein)
chain 1: EVQLVESGGGLIQPGGSLRLSCAASGVTVSSNYMSWVRQAPGKGLEWVSVIYSGGTTFYADSVKGRFTISRDNSKNTLYLQMNSLRAEDTAVYYCARDLDVMGGFDYWGQGTLVTVSS
chain 2: DIQLTQSPSFLSASVGDRVTITCRASQGMSNFLAWYQQKPGKAPKLLIYAASTLQSGVPSRISGSGSGTEFTLTISSLQPEDFATYYCQELNSYPRTFGQGTKVEIK
B15: ADI-67628 (protein)
chain 1: QVQLVESGGGVVQPGRSLRLSCGASGFTFGSYNMHWVRQAPGKGLEWVAVIWHDGSNKYYADSVKGRFTISRDNSKSTLYLQMNSLSPEDTSVYYCARDTEITNFDMDVWGQGTTVTVSS
chain 2: DVVMTQSPLSLPVTLGQPASISCRSSQSLVYIDGNTYLNWFLQRPGQSPRRLIYKVSNRDSGVPDRFSGSGSGTDFTLKISRVEAEDVGLYYCMQGTHWPPTFGQGTKVEIK
B16: ADI-67854 (protein)
chain 1: QVQLQESGPGLVKPSQTLSLTCTVSGDSISSGSSYWSWIRQHPGEGLEWIGYISYGGSSYYNPSLKSRVTISVDTSKNQFSLRLTSVTAADTAIYYCASGLWSGFYYFDYWGQGTLVTVSS
chain 2: EIVLTQSPGTLSLSPGERATLSCRASQSVRSSYLAWYQQKPGQAPRLLIYGASNRATGIPDRFSGSGSGTDFIFIISRLEPEDFAVYYCQQYGSLPLTFGGGTKVEIK
B17: ADI-67483 (protein)
chain 1: QVQLVQSGAEVKKPGSSMKISCKASGGAFSIYTIAWVRQAPGQGLEWMGGIIPMSGTPNYAQNFQGRVTITADESTTTVYMHLSSLRSEDTAVYFCARDYRYCSGNSCSFWFDPWGQGTLVTVSS
chain 2: DIQMTQSPSSLSASVGDRITITCRASQSISNYLNWYQQKPGKAPKVLIYTASSLQSGVPSRFSGSGSGTDFTLTISSLQPEDFATYFCQQSYSTPRTFGQGTKVEIK

What was measured:
Test in all cases: pseudovirus neutralization IC50; higher = weaker neutralization
[1] = target: SARS-CoV-2 Delta spike pseudovirus; settings: system: VSV particle, 293T-ACE2 cells
Method: (§1)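 Single-round reporter pseudovirus mixed with dilutions of yeast-made human IgG and put on ACE2-bearing cells; IC50 from the dose curve.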

[2] = target: SARS-CoV-2 index (Wuhan-Hu-1) spike pseudovirus
Method: as §1

[3] = target: SARS-CoV-2 Beta spike pseudovirus; settings: system: VSV particle, 293T-ACE2 cells
Method: as §1

[4] = target: SARS-CoV-2 Omicron BA.1 spike pseudovirus; settings: system: MLV particle, HeLa-ACE2 cells
Method: as §1

[5] = system: VSV particle, 293T-ACE2 cells
[6] = system: MLV particle, HeLa-ACE2 cells

Row | Binder | pseudovirus neutralization IC50 [1] | pseudovirus neutralization IC50 [2, 5] | pseudovirus neutralization IC50 [3] | pseudovirus neutralization IC50 [4] | pseudovirus neutralization IC50 [2, 6]
1 | B1 | 0.0302 µg/mL | 0.0216 µg/mL |  |  | 
2 | B2 | 0.0599 µg/mL | 0.0584 µg/mL | > 1 µg/mL | 0.12 µg/mL | 0.0203 µg/mL
3 | B3 |  | > 1 µg/mL | > 1 µg/mL |  | 
4 | B4 | 0.0302 µg/mL | 0.012 µg/mL | > 1 µg/mL |  | 
5 | B5 | 0.039 µg/mL | 0.048 µg/mL |  |  | 
6 | B6 | 0.302 µg/mL | 0.17 µg/mL | > 1 µg/mL |  | 0.00754 µg/mL
7 | B7 | > 1 µg/mL | > 1 µg/mL | > 1 µg/mL |  | 
8 | B8 | 0.238 µg/mL | 0.111 µg/mL | > 1 µg/mL |  | 
9 | B9 | > 1 µg/mL | > 1 µg/mL | > 1 µg/mL |  | 
10 | B10 | > 1 µg/mL | 0.813 µg/mL | > 1 µg/mL |  | 
11 | B11 | > 1 µg/mL | > 1 µg/mL |  |  | 
12 | B12 | > 1 µg/mL | > 1 µg/mL |  |  | 
13 | B13 | 0.0235 µg/mL | 0.0258 µg/mL |  |  | 
14 | B14 | 0.123 µg/mL | 0.0589 µg/mL | > 1 µg/mL |  | 0.00579 µg/mL
15 | B15 | > 1 µg/mL |  | > 1 µg/mL |  | 
16 | B16 | > 1 µg/mL |  |  |  | 
17 | B17 | > 1 µg/mL | > 1 µg/mL | > 1 µg/mL |  | 
